# Assay results from PubChem BioAssay AID504706 (National Center for Advancing Translational Sciences (NCATS), 2011).
# Out of some 320,000 compounds screened, about 200 (0.062%) were called active. This list was built around the results that the source calls inconclusive (neither active nor inactive); the mix of calls is not that of the screen. Calls come from the whole dose curve; as a rule, active = well fitted activation curve with a large enough effect; inconclusive = small, poorly fitted or top-dose-only effect; inactive = no such curve, though single readings can be large or run the other way. No potency is given beside an inconclusive call; the fits are too rough.
# Assay: qHTS assay for re-activators of p53 using a Luc reporter; note: nearly all actives have a fitted effect of over 45% in size
# Settings: H1299 p53-A138V BP100-luciferase reporter, luminescence, 24 h; series mostly up to 92.2 µM
# In short: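 p53-null H1299 cells stably carrying temperature-sensitive p53-A138V and a BP100-luciferase reporter were pinned with compounds (4-point, 1:5 series) and held 24 hrs at 37 deg C. Luminescence was read 10 min after detection reagent.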
# Potency is the fitted concentration of half-maximal effect; tags give direction and shape of the fitted curve.
row,SMILES,Potency
1,Cc1ccc(C2CC2/C(=N/O)c2ccc(F)cc2)cc1 (stereo not drawn),inactive
2,Cc1ccccc1OCCCSc1nc2ccccc2[nH]1,"inconclusive [activator, partial curve, poor fit]"
3,COc1cc(CNCCc2ccccc2)cc(Cl)c1OCc1ccccc1,inactive
4,O=C(Nc1nnc(SCc2ccccc2)s1)C1=COCCO1,inactive
5,CC(C)c1ccc(NC(=S)NCCc2c[nH]c3ccccc23)cc1,"inconclusive [activator, single point]"
6,CCN(CC)S(=O)(=O)c1cccc(C(=O)N/N=C/c2c(C)nn(-c3ccccc3)c2Cl)c1,inactive
7,COc1ccc(NC(C)=O)cc1NC(=O)CN1CCN(C(=O)c2ccco2)CC1,"inconclusive [activator, single point]"
8,N/C(=N\OC(=O)c1ccc(Cl)c(Cl)c1)c1cccnc1,"inconclusive [activator, partial curve, poor fit]"
9,CCN(CC)CCN(Cc1cc2cc(C)ccc2[nH]c1=O)C(=O)Nc1ccccc1OC,"inconclusive [activator, single point]"
10,COc1ccccc1N1CCN(c2nc3ccccn3c(=O)c2C=O)CC1,"inconclusive [activator, partial curve, poor fit]"
11,O=C(Nc1ccc(NC(=O)c2ccccc2Cl)nc1)c1ccco1,"inconclusive [activator, partial curve, poor fit]"
12,Cc1ccc(C(=O)Nc2ncc3c(n2)CC(c2ccco2)CC3=O)cc1 (stereo not drawn),"inconclusive [activator, partial curve, poor fit]"
13,O=[N+]([O-])c1cc(-c2cnc3ccccc3n2)ccc1Oc1ccc(Cl)cc1,"inconclusive [activator, full curve, poor fit]"
14,Cc1ccc(/C=N/NC(=O)c2ccoc2C)s1,"inconclusive [activator, partial curve, poor fit]"
15,COc1ccc(NC(=O)NC2CCCCCCC2)cc1,"inconclusive [activator, full curve, poor fit]"
16,Cc1cccc(C(=O)Nc2sc(C)c(-c3ccccc3)c2C#N)c1,"inconclusive [activator, full curve, poor fit]"
17,CC(C)n1ncc2c(C(=O)N3CCN(Cc4ccc(Cl)s4)CC3)cc(C3CC3)nc21,inactive
18,COc1ccc(S(=O)(=O)N2CCCC(C(=O)NCCC(C)C)C2)cc1 (stereo not drawn),inactive
19,COc1nc(C)ccc1-c1noc(-c2cccs2)n1,"inconclusive [activator, partial curve, poor fit]"
20,CCOC(=O)c1c(C)oc2c1c(C(c1ccccc1)N1CCOCC1)c(O)c1ccccc12 (stereo not drawn),"inconclusive [activator, partial curve, poor fit]"
21,Cn1ccnc1SCC(=O)Nc1ccc(Oc2ccccc2)cc1,"inconclusive [activator, partial curve, poor fit]"
22,Cc1cccc(NC(=O)c2ccc(S(=O)(=O)N(C)C)cc2)c1,"inconclusive [activator, single point]"
23,O=C(COC(=O)c1ccc2c(c1)OCCO2)NC1CCCCC1,"inconclusive [activator, full curve, poor fit]"

row,SMILES,Potency
1,O=C(OCc1ccccc1F)c1cnc(Cl)c(Cl)c1,inactive
2,COCCCNc1nc2c(-c3ccc(Cl)cc3)nnn2c2ccccc12,inactive
3,CNC(=O)c1ccc(-c2ccc(OC)cc2)s1,"inconclusive [activator, partial curve, poor fit]"
4,Cc1cc(C)cc(NC(=O)Nc2ccc3c(c2)CCC3)c1,inactive
5,Cc1ccc(NC(=O)COC(=O)COc2ccc3ccc(=O)oc3c2)cc1[N+](=O)[O-],inactive
6,COc1ccccc1CN1CC(C(=O)N2CCCCO2)CCC1=O (stereo not drawn),inactive
7,O=C(Cc1ccccc1)NCc1ccc(F)cc1,"inconclusive [activator, partial curve, poor fit]"
8,Cc1[nH]nc2cn[nH]c12,inactive
9,c1ccc(-c2noc(C3CCCCC3)n2)nc1,"inconclusive [activator, partial curve, poor fit]"
10,O=C(OCc1nnc(-c2cccs2)o1)C1=NN(c2ccccc2)C(=O)CC1,"inconclusive [activator, partial curve, poor fit]"
11,Cc1ccc(C(=O)NNC(=O)Cc2cccs2)cc1,"inconclusive [activator, partial curve, poor fit]"
12,CCCn1c(NC(=O)c2cccc(S(=O)(=O)N3CCCC3)c2)nc2ccccc21,"inconclusive [activator, full curve, poor fit]"
13,COc1ccc(C(=O)OC2CCCCC2CN(C)C)cc1 (stereo not drawn),inactive
14,O=[N+]([O-])c1ccccc1-c1cc(-c2ccccc2O)n[nH]1,"inconclusive [activator, partial curve, poor fit]"
15,c1ccc(C2Oc3ccccc3C3CC(c4cccs4)=NN32)cc1 (stereo not drawn),"inconclusive [activator, partial curve, poor fit]"
16,CC(C)[C@H](NC(=O)c1ccccc1Cl)C(=O)OCC(=O)N1CCCCC1,"inconclusive [activator, partial curve]"
17,COc1cc(/C=N/n2c(C)n[nH]c2=S)ccc1OCc1ccc(F)cc1,"inconclusive [activator, partial curve, poor fit]"
18,C=CCn1c(=O)c2c(nc(-n3nc(C)cc3C)n2C)n(C)c1=O,"inconclusive [activator, single point]"
19,COc1cc(Cl)ccc1OCc1cc(C(=O)NC(C)Cc2cnccn2)no1 (stereo not drawn),"inconclusive [activator, partial curve, poor fit]"
20,Cc1cc2c([nH]c3ccccc32)c2c1OC(C)(C)C=C2,"inconclusive [activator, full curve, poor fit]"
21,CCOC(=O)c1ccccc1NC(=O)COC(=O)CSc1ccccc1,"inconclusive [activator, partial curve, poor fit]"
22,O=C(CCc1ccccc1)NNC(=S)NC(=O)c1ccc(Cl)cc1,inactive
23,O=S(=O)(Cc1noc(-c2ccccc2Cl)n1)c1ccccn1,"inconclusive [activator, partial curve, poor fit]"

row,SMILES,Potency
1,Cc1nc2cc(-c3ccccc3)nn2c(N)c1-c1ccccc1,inactive
2,COc1cccc(-c2nnc3sc(-c4ccccc4)nn23)c1,"inconclusive [activator, full curve, poor fit]"
3,Cc1cccc(C(=O)Nc2ccc(NC(=O)c3ccccc3)cc2)c1,"inconclusive [activator, single point]"
4,O=C(COC(=O)c1n[nH]c2ccccc12)Nc1ccccc1F,"inconclusive [activator, partial curve, poor fit]"
5,O=C(COC(=O)c1cc(S(=O)(=O)N2CCOCC2)c(Cl)cc1Cl)NCc1ccco1,"inconclusive [activator, partial curve, poor fit]"
6,CC(=O)c1ccc(N2CCN(C(=O)Nc3ccc(F)cc3)CC2)cc1,inactive
7,CCCC(=O)N1CCN(c2ccc(NC(=O)c3cc4ccccc4o3)cc2Cl)CC1,inactive
8,c1ccc2sc(N3CCOCC3)nc2c1,inactive
9,CC(=O)c1cccc(NC(=S)NC(=O)c2ccccc2Cl)c1,"inconclusive [activator, single point]"
10,COCCn1c(SCC(=O)Nc2cccc(S(N)(=O)=O)c2)nc2cc(Cl)ccc2c1=O,"inconclusive [activator, single point]"
11,COc1cccc(N=Nc2ccc(O)c3ncccc23)c1,"inconclusive [activator, partial curve, poor fit]"
12,N#Cc1c(NC(=O)CSC2=NCCS2)sc2c1CCCC2,"inconclusive [activator, single point]"
13,COC(=O)n1ccc(C(=O)Nc2ccccc2F)n1,"inconclusive [activator, partial curve, poor fit]"
14,Cc1ccc(C)c(/C=N/n2cc(-c3ccccc3)[nH]c2=S)c1,"inconclusive [activator, single point]"
15,Cc1ccc(NC(=O)COC(=O)c2ccc(-n3cnnn3)cc2)c(Br)c1,"inconclusive [activator, single point]"
16,O=C(CSc1ncc(-c2ccc(F)cc2)[nH]1)N1CCCCC1,"inconclusive [activator, full curve]"
17,COc1ccc2oc(-c3cccc(NC(=O)CSc4ccc(Cl)cc4)c3)nc2c1,"inconclusive [activator, full curve, poor fit]"
18,Cc1[nH]c2ccccc2c1C1=NNC(=Nc2ccc(F)cc2)SC1,"inconclusive [activator, partial curve, poor fit]"
19,CCCOc1ccc(/C=N/Nc2ccccc2[N+](=O)[O-])c(OCCC)c1,"inconclusive [activator, full curve]"
20,CCOP(=O)(OCC)c1nc(-c2cccc3ccccc23)oc1N1CCCCC1,inactive
21,Cc1cc(N2C(=O)C(O)=C(C(=O)c3cc4ccccc4o3)C2c2cccc(Cl)c2)no1 (stereo not drawn),"inconclusive [activator, single point]"
22,CC(C)CNC(=S)Nc1ccc(Oc2ccccc2)cc1,"inconclusive [activator, partial curve, poor fit]"
